The source gives no read counts; variants with many changes may rest on few reads.
B1: LINE1-full (parent)
chain: UACGUAGGUGGUUUUCCCCUGAUAGUGCUAAGGGGGCCUGGAAGUUUGGACUGGGCAGAGCUCAACACAGCGUGGCAAAGUGGCUGUGGCUAGACUGCCUCUCUGGAUUCCUCGUCACUCAGCAGGGCAUCUCUGAGAGAAAUGCC

Variants of: B1
Assay: self-cleavage, relative activity (ratio to wild type); higher = more cleavage; in vitro, sequencing; the parent is a self-cleaving ribozyme

| Variant | self-cleavage |
| --- | --- |
| A64G U102C A136G C145G | 0 |
| A31U U46C U73G | 1.23 |
| U62A A64G A77G | 0 |
| U9A U29G A79G A140G | 0 |
| A2G U9C U26C C95G A141G | 0.38 |
| U9A A42G G48A A141G | 0.88 |
| A59U U81C U115C | 1.45 |
| U12C C18U A31U A67G U85C | 0 |
| A42G G74A A142G | 1.13 |
| U13C A50G A59U A65G U100C U143A | 0 |
| G35U G74A U87C U132C | 0.08 |
| U46C A64U C71U A129U | 0.28 |
| U20C A64G U73C | 0 |
| U23C U45G A117G | 1.06 |
| A2G A65C C110A | 0.15 |
| U26A U39C A50G C68A | 0 |
| A64G A65G U112C U115A A140G | 0.92 |
| U14C C19A C51U A94U | 0.35 |
| U1C A69U G88A A129U U143C | 0.04 |
| U13C U73C U87C | 0 |
| U12C U108C A141G | 1.3 |
| U109C A121U A141G | 1.5 |
| G21A A22U A78G | 1.46 |
| G97A A140G A142G | 0.05 |

| Variant | self-cleavage |
| --- | --- |
| U39G A43G U102A | 0.97 |
| G34U A92G A140U | 0.04 |
| A22G A31U A79G A124G | 0.4 |
| U13C U39C U132C | 1.15 |
| U20C U52A A124G | 0.8 |
| U20A A67G U130C | 0.43 |
| C76A U104C A138G | 1.5 |
| U1C A2G U100A | 0.3 |
| A94G U115C U132C | 0 |
| U39A U115C A136G | 1.75 |
| U39A U104A U132C | 0.29 |
| U12C G86A C111U | 0.01 |
| A78G G83A U108A | 0.62 |
| U12G U87A U91C | 0.31 |
| U62C A69C G89A A138G | 0.02 |
| A2G A65G U130A | 1.02 |
| G4A U47G A50G U104C | 1.41 |
| G35U A78C A141G | 2.45 |
| U12C G53A U100C C111A A124G | 0.41 |
| U26A U47A U100C | 0.38 |
| A22U U45A G80A A107G U115A U130C | 2.99 |
| U5C A78G G89A U104C U109C | 0.17 |
| U87C G106C A121U | 0.2 |
| A42G A107G A138G | 1.04 |

| Variant | self-cleavage |
| --- | --- |
| U5C U104C U134C | 1.93 |
| C19U A43G A65U U104C | 0.49 |
| A43G A59U A136C A138G | 0.8 |
| A30G U46C U100C A141G | 1.23 |
| A6G A24U C128U | 1.21 |
| G10A U12C U100A | 1.29 |
| A6G G54A U104A A124C A138G | 0.42 |
| U46C A57U A59G A77G | 0 |
| U9A G48U U96C A121G | 0 |
| U46C A117U A138G | 1.76 |
| U14C U81A A94U | 0.28 |
| G21A A64C A65G A124G A136G | 0 |
| U29A A30G G53U | 1.5 |
| A59G U130C U132C | 0.12 |
| G53A A67G A136G | 0.44 |
| U20C C71U U115C | 1.15 |
| G35A A67G G72U U130C A136U | 0.32 |
| U13A U46G A79G | 1.15 |
| U14C U91A U100C | 1.02 |
| U15C A64U A77U U100A C123U | 0.22 |
| A2G A22U A64G G93A | 0.12 |
| U1G G21A U87G A129G A141G | 0.3 |
| U45C U52A G114A | 1.15 |
| A2G U45C A59G G82A U104A U134A A140G | 0 |

| Variant | self-cleavage |
| --- | --- |
| U52C G53A A64G A77U U112C | 0.03 |
| U14A U47C A67G A121U | 0.77 |
| A2G G35A G82A | 0.79 |
| U20C A43U A136U A138G C145U | 1.63 |
| U1A U87C G93U A117G U119A | 0.3 |
| A57G A79G U112C U143C | 0.63 |
| A77U U81A U102A | 2.37 |
| A31U U46G A69C | 0.29 |
| U13C C38U U109G A138G U143A | 0.25 |
| U9A U62C U119A C128A | 0.11 |
| A107G U115C U119C | 0.92 |
| G36U U39C A50G U52C U81A A124U | 0.51 |
| A121U A136G U143G | 0.88 |
| U14C G48A U102A U112C | 1.47 |
| C63U A78G U104A A124G | 0.13 |
| U13A U132C A141G | 1.3 |
| A67G G72A A141G | 0.31 |
| U9C U26A A57U U96A | 0.6 |
| A57G U104C A140G | 1.38 |
| U87C A107C A142G | 0.57 |
| U52G A92G A117U | 0.15 |
| C37G U39A U52A | 1.77 |
| A57C U73C A124C | 0 |
| A57G U87A U112C U143A | 0.08 |

| Variant | self-cleavage |
| --- | --- |
| U5A C98G U143C | 0.13 |
| U52A A78G U108C G137U | 2.04 |
| A24U A50G A57G C63U | 0.16 |
| A67G A107G C123U G127A | 0.33 |
| A77G U108C U112A | 2.04 |
| G25A U62C A64U | 0.01 |
| U13A A22U A30U | 0.76 |
| A6G U13C G89A | 0.18 |
| U26C G36U A94G U109A A121C A136C | 0.41 |
| U29C U108C U134C | 0.77 |
| U12C G40U G49U A64G A141G | 0.11 |
| U13A U87C A92C | 0.24 |
| G4A A57U U102C A140G A141G | 0.18 |
| U52C A64U U73C U91C C123U | 0.37 |
| U15C G54A U62A | 0 |
| U91A U100C A140G | 0.68 |
| G27A U115A A129G U143A | 0.55 |
| G27A U100C A140G | 2.38 |
| U12G C28G U85C A121G | 0 |
| U12C G33A A67U U100C | 0.32 |
| U45C U100C A129G | 0.51 |
| C18A G36C U115G | 1.02 |
| U29C U115A A141G | 1.52 |
| U13C U14C U15A A22G U29A C38A A64C | 0.22 |

| Variant | self-cleavage |
| --- | --- |
| A124G A141G A142G | 0.66 |
| A24U A79U U96A | 0.18 |
| U119A A129G A140U | 2.09 |
| U100A U130A A141G | 0.88 |
| U62A A136C G137A | 0.04 |
| G40U A77G C131U | 2.23 |
| U13C U45C A94U | 0.3 |
| G72U A94G U130C A142G | 0.19 |
| U12C U39C G80C C113A U119C | 1.16 |
| U62C U130C U143A | 0 |
| A57G U108C A141U | 0.67 |
| A43G A57G U109C | 0.32 |
| A2U U26C A43G A78U A136U | 1.28 |
| U1C U9G A69G U115C | 0 |
| U62C A69U G75A | 0.01 |
| A64G U100C C116A | 0.25 |
| A57U A94G A141G | 0.16 |
| U9C U100C A138U | 1.13 |
| U52A U102C U143A | 1.17 |
| A22U A24G U112C | 0.9 |
| A22G A78G G122U | 0.56 |
| U39A A107G U119A | 2.39 |
| A69G A117G A140G | 0.63 |
| U62C C111U U112C A142G | 0.14 |

| Variant | self-cleavage |
| --- | --- |
| U1C U29C U47A A64G A94G | 0 |
| A2G U9C U52C A79G G126A | 0.54 |
| A57G C71A A138U | 0.14 |
| A24C G41A U143C | 0.97 |
| A22G A43U U109A | 0.61 |
| U15A U62C U73C G82A A94G A117G | 0 |
| A6G U29C C146U | 0.55 |
| C18U A78G C90G A136G | 0.07 |
| U47A A79G C133U | 2.07 |
| U14C U52A U100C A138G | 1.48 |
| U112A A140G U143C | 1.44 |
| U20C A22G A57U U81C C95U | 0.11 |
| U9C U45C U62C U87A | 0.34 |
| A43U G55U A77U U112C U115G U119A | 0.09 |
| A24G G36C A107G C145A | 1.23 |
| U73A A94G U115C | 0.52 |
| G40A U46C U81C U96C U134C | 0.11 |
| G54C U100A U104A | 0.14 |
| U62C A78U U109C U130C A142G | 0.03 |
| G34U A43G U115A | 1.2 |
| C37A A42G A65G U85A | 0 |
| A50G A69U A79G A141G | 0.07 |
| U39C U45C A92U A141G | 0.38 |

From the RNAGym collection of RNA variant scans (doi:10.7554/elife.90254)
